From PubChem BioAssay AID1240 (Sanford-Burnham Center for Chemical Genomics, 2008) come the findings set out here.

The structures appear in SMILES notation. Screen size: about 50,000 compounds; about 800 (1.6%) showed an effect of 50% or more. The list shows a part of the results.

In the test the target is Bcl-2-like protein 10 (Homo sapiens) (UniProt Q9HD36). Put plainly: TR3 peptide-Bcl-B binding displacers, biochemical primary FP assay, phenotype converters (AID 1240).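 Note: 0% = Bcl-B with tracer peptide and DMSO and 100% = tracer peptide lacking Bcl-B.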 The settings on record: GST-Bcl-B / FITC-TR3 peptide fluorescence polarization; stronger effect = higher value; compound at 3.75 mg/L.
Chain of UniProt Q9HD36 (Q9HD36 whole entry, looked up): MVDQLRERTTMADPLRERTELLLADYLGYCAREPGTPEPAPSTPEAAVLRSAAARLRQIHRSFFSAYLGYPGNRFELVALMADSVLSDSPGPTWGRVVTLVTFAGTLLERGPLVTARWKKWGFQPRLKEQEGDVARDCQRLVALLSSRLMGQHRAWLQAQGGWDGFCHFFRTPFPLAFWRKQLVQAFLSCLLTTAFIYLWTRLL
For the molecule `O=C(O)c1ccc2c(c1)C(=O)N(c1ccc(S)cc1)C2=O`, the displacement was -9.6%. The value for `Cc1ccc(C23CC4CC(CC(C(=O)Nc5ccccn5)(C4)C2)C3)cc1` was -10.1%. Turning to `COc1ccc(S(=O)(=O)Nc2ccc(C(=O)Nc3ccccc3)cc2)cc1Br`, the displacement worked out at 11.8%. The value for `Cc1c(OCc2ccc(F)cc2)ccc2c1oc(=O)c1ccccc12` was 10%; that for `COc1cc2c(cc1OC)C(c1ccc(Br)cc1)OC1=C2C(=O)c2ccccc21` (centres undefined) was 0.4%; that for `COc1ccc(CSc2nnc3nc(C)cc(C)n23)cc1` was 27.4%. Consider `COC(=O)/C(=C/c1ccccc1)C(C)=O`, for which the displacement came to 7.6%. The value for `Cc1cc(Cl)ccc1OCC(=O)NNC(=O)c1cc(Cl)ccc1O` was -4.7%; that for `COc1ccc(C(=O)Nc2ccc(OC(F)(F)F)cc2)cc1` was -3.2%.

For `Cc1cccc(/C(N)=N/OC(=O)COc2ccccc2C)c1`, the displacement is -7.2%. The value for `COc1cc2ccccc2cc1C(=O)Nc1cccc(-c2cc3ccccc3oc2=O)c1` was 2%; that for `Cc1cc2nc(-c3ccc(C)c(NC(=O)c4ccc([N+](=O)[O-])cc4Cl)c3)oc2cc1C` was 8.7%; that for `CC(C)(C)c1cc(Cc2ccccc2)[nH]n1` was 5.9%.

With `COc1cc(C2SCC(=O)N2CCc2ccc(OC)c(OC)c2)ccc1O` (centres undefined), the displacement was determined as 0%.

For `Nc1ccc(C(=O)CC2(O)C(=O)Nc3ccccc32)cc1` (centres undefined), the displacement is 6.5%.

Take `CCN(CC)S(=O)(=O)c1cc(C(N)=O)ccc1Br`: the displacement is -2.5%.

As for `Cc1ccc(C(=O)Nc2sc3c(c2C(=O)N2CCOCC2)CCC(C)C3)cc1` (centres undefined), the displacement turned out to be 1.7%. `O=C(CSc1nc2ccc(N3C(=O)c4ccccc4C3=O)cc2s1)NCCOc1ccccc1`: the displacement is 0.1%. Next, `COC(=O)C1CC(=O)N(c2ccccc2)C1` (centres undefined): 8.6%; `O=C(N/N=C\c1ccc(O)cc1O)C(=O)N/N=C/c1ccc(O)cc1O`: 34.1%.

Turning to `COCCCNC(=O)C(=O)Nc1ccccc1F`, the displacement was -11.9%. Next, `CC(=Nc1cc(Cl)ccc1O)c1c(-c2ccccc2)[nH]n(-c2nc3ccccc3s2)c1=O`: -4.2%; `CC(C)Cc1nnc(NC(=O)COc2ccccc2)s1`: -10.7%; `Cc1[nH]c2c(Cl)cccc2c(=O)c1CN1CCOCC1`: 12.3%. The value for `CCOC(=O)c1cnn(Cc2cccc(Cl)c2)c1C` was -2.7%; that for `COC(=O)COc1ccc2c(-c3ccccc3)cc(=O)oc2c1C` was 7.3%. As to `COc1ccc(CN2CCN(C(=O)c3ccc(-c4ccccc4)cc3)CC2)c(OC)c1`, the displacement was -18.7%. The value for `Cc1no[n+]([O-])c1COc1ccccc1C=C1C(=O)NC(=O)NC1=O` was 7.7%; that for `O=C(Oc1cccc(/C=C2/SC(=S)N(c3ccccc3)C2=O)c1)c1ccco1` was -17.2%. As to `COC(=O)c1c(N)sc(C)c1-c1ccc(C)cc1C`, the displacement was -10.6%. The value for `COc1ccc(O)c(/C=C2\SC(=S)N(Cc3ccccc3)C2=O)c1` was 7.6%; that for `Cc1cccc(C(=O)NCc2ccncc2)c1` was 5.2%. The value for `CCC(=O)Nc1ccc2oc(-c3ccccc3Br)nc2c1` was 8.7%; that for `O=C(O)c1ccc(NC(=O)c2ccc3c(c2)C(=O)N(c2ccc([N+](=O)[O-])cc2)C3=O)cc1` was 10.6%.

On to `COc1nccnc1NS(=O)(=O)c1ccc(NC(=S)NC(=O)c2ccc(F)c(F)c2)cc1`, for which the displacement worked out at 6.6%.

For the molecule `O=C(O)c1ccc(S(=O)(=O)c2ccc3c(c2)C(=O)N(c2ccc(O)c(C(=O)O)c2)C3=O)cc1`, the displacement was found to be 14.6%. Next, `O=C(COC(=O)C1CC(O)CN1C(=O)Oc1ccccc1)c1ccc(Cl)cc1` (centres undefined): 10.1%; `COc1ccc(C(=O)Nc2cccc(-c3nc4ccccc4s3)c2C)cc1[N+](=O)[O-]`: -0.4%. `COc1ccc(S(=O)(=O)N2CCN(C(=O)c3cccs3)CC2)cc1`: the displacement is 13.7%. On to `COc1ccc(Cl)cc1NC(=O)CN(CCc1ccccc1)S(=O)(=O)c1ccccc1`, for which the displacement amounted to 11.9%. On to `COC(=O)C1=C(C)NC2=C(C(=O)c3ccccc32)C1c1ccccc1OCc1ccc(Br)cc1` (centres undefined), for which the displacement came out at 16.5%. Consider `CCOc1ccc(N2C(=O)CC(Sc3nnc(C)s3)C2=O)cc1` (centres undefined), for which the displacement was -3.8%.

Consider `N#C/C(=C\c1ccc(F)cc1)c1nn(CCO)c(N)c1C#N`, for which the displacement is -45.5%.

In the case of `CCOC(=O)c1cc(CC)sc1NC(=O)c1ccc(N2CCN(CC)CC2)c([N+](=O)[O-])c1`, the displacement was -11%. Regarding `O=C(COc1ccccc1[N+](=O)[O-])N=Nc1c(O)[nH]c(=O)[nH]c1=O`, the displacement came to 12.9%.

Take `Clc1ccc(Cc2noc(C34CC5CC(CC(C5)C3)C4)n2)cc1`: the displacement amounted to 0.1%.

With `Cc1cc(/C=C2/SC(=O)NC2=O)c(C)n1C`, the displacement is 28.6%.

With `CCc1ccc(S(=O)(=O)Nc2c(C)cc(C)cc2C)cc1`, the displacement is 3%. The value for `Cc1ccccc1NC(=S)NC(=O)c1ccc(Br)cc1` was 3.3%; that for `COc1cc(OC)cc(C(=O)NC2CCCCCC2)c1` was -0.3%; that for `O=C(N=Nc1c(O)[nH]c(=O)[nH]c1=O)c1cccc([N+](=O)[O-])c1` was 12.2%.

As for `O=C1OC(c2ccc(F)cc2)=N/C1=C\c1ccc(OC(=O)c2ccccc2Cl)cc1`, the displacement turned out to be 13.6%. With `COc1ccc(C)cc1NC(=O)COc1ccc(Cl)cc1C`, the displacement was -5.2%.

As to `C=C(C)CNC(=S)NC1=C(C)N(C)N(c2ccccc2)C1=C`, the displacement was -10.7%. Next, `CCOc1cc(OCC)cc(C(=O)Nc2ccc(NC(=O)c3ccco3)c(OC)c2)c1`: -3.3%; `CCN(Cc1ccccc1)C(=O)c1ccc(Cl)c([N+](=O)[O-])c1`: -3.2%. The value for `O=C(Cn1c2ccccc2c(=O)c2ccccc21)N/N=C/c1cc(Cl)cc(Cl)c1O` was -53.1%; that for `CCSCCOC(=O)C1=C(C)N(C)C(=O)NC1c1ccc(OC)cc1` (centres undefined) was 2.9%; that for `c1ccc2c(c1)ncn2CCOCCOCCn1cnc2ccccc21` was 13.2%. Next, `CC1/C(=N\O)CC(c2ccco2)NC1c1ccco1` (centres undefined): 8.6%. With `O=C(c1cccc(C(=O)N2CCCc3ccccc32)c1)N1CCCc2ccccc21`, the displacement was -5.4%. The value for `CC1CCc2c(sc(NC(=O)C3CC3)c2C(=O)OC(C)C)C1` (centres undefined) was 1.9%; that for `O=C1CCCN1CP(=O)(O)CN1CCCC1=O` was 1.7%. Next, `COc1cccc(N(CC(=O)NCC(C)C)S(=O)(=O)c2ccccc2)c1`: 20.5%; `CC1=C(C)CC(C(=O)Nc2ccc(S(=O)(=O)N3CCOCC3)cc2)C(C(=O)O)C1` (centres undefined): 0.1%.

On to `O=C(CN(c1cccc([N+](=O)[O-])c1)S(=O)(=O)c1ccccc1)Nc1ccc(F)c(Cl)c1`, for which the displacement worked out at 10.1%. In the case of `O=C(Nc1c(C(=O)N2CCC(Cc3ccccc3)CC2)cnn1-c1ccccc1)c1cccc(F)c1`, the displacement was determined as 3.5%. The value for `c1ccc2c(CN3CCCC3)ccc(CN3CCCC3)c2c1` was 10.9%; that for `COc1ccc(C(=O)N2CCN(Cc3c[nH]c4ccccc34)CC2)cc1OC` was -11.1%.
